Data taken from the supplement of paper PMC10126150.
Values marked as one replicate rest on one cluster of the flow cell; about a third of the high ones do not repeat.

Tested on: ATP
Test: switch fluorescence ratio, 500 uM ATP over buffer (Cy3 cluster intensity, sum of 5 cycles each) (fold (ratio)); higher = stronger signal-on switching upon ATP binding; sequences stand for … in TCGTCGGCAGCGTCAGATGTGTATAAGAGACAGTTTTTTTTTTTTTTTTTTTTTTTTT…TC
Conditions: aptamer strand: ATP DNA aptamer (quencher-CACCTGGGGGAGTATTGCGGAGGAAGG + anchor), 100 nM annealed; ATP concentration: 500 uM; one replicate
In short: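 Switching-strand clusters labelled with Cy3 on a modified Illumina MiSeq flow-cell were annealed to 100 nM quencher-labelled ATP aptamer, imaged in selection buffer, and re-imaged after 15 min with 500 uM ATP at 22 °C. This was done over five cycles with NaOH stripping and re-annealing in between. The fluorescence ratio is summed target-cycle over summed buffer-cycle Cy3 intensity per cluster, averaged per switch-domain sequence, excluding clusters outside 100-1000 RFU.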
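Also: ATP exposure 15 min at 22 °C before imaging.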

Sequence	switch fluorescence ratio
GGAGGCGCCA	0.977
GGAACTAGTG	0.995
ACACGTCTAT	1.07
TCGGGCTCCT	1.03
TCCTTCGTTT	2
GCGGCGGCTG	0.992
GGGATTAGAC	1.04
TCACGCTTAC	4.11
ACTTCGGGTC	1.03
GGAAAGAGGC	1.02
AGGCTGGAA	1.01
GTTCATATTT	0.962
GTATGCTCTG	1.03
TCGCACTTGG	1.08
CGGACACGCT	0.925
GCCCGGTGA	1.78
TGATTGATCG	1.01
TCTGCATCAT	1.07
AGCGTGACGC	0.992
GGTAGATCTG	0.958
CCCGGGGTTA	1.03
TTCCTCTTA	1.01
TATGATGAAG	1.02
TCGCCGCTGG	1.13
ACCTGATC	2.19

Sequence	switch fluorescence ratio
ACGAGATTTT	1.01
GGTTTTTGAA	0.98
AACTACGCCA	1.78
GTCACTTCGC	1.05
CCTGTCGAAT	1.03
ATCAAGGAAG	0.977
GGTCGTGTAC	0.993
CAAAGCTGTT	1.01
ATCAACGGAC	1.35
AAGTGTGTGC	0.984
ATTCTCGC	1.02
TTCTAACTGT	0.984
GCGTTTTGCC	0.959
GCTAGAGACC	0.986
CGGTCATGAT	0.975
ATGTTTACGT	0.999
CGAAGAGCAA	1.72
ACTGCTTGAA	1.02
AATAAAATCT	1.14
CCTGGAGGAG	1.12
ATGCCGAGT	0.996
CAAGCTGAGC	0.985
TCGGCGGGAC	1.84
TCGTCACCAC	1.09
TTCACTTCTT	0.993

Sequence	switch fluorescence ratio
TAATCCCACG	1.05
CGGGAAGGCG	0.977
CTGGGTGTT	1.08
CTGGGAAGT	0.984
GTGTTTGCTT	1.01
AATACGGGGC	0.99
GCTTAAGTCC	1.04
TTTCATCCA	1.06
CAGCCCGCCA	1.34
GCAACTAGGC	1.19
GGGTTGGTAA	0.962
GAGTCGAAAA	1.04
GGCAGTGCAC	0.964
CGGACGGGTA	1.01
CTGTGGCATA	1.31
ATTAGATACC	1.07
GTCGCCTCGG	1.01
GGTGTATATT	0.986
ATTAGGTTGC	0.988
CGGAAGTTAC	1.5
TGGAGGGTCT	1.01
CTAGACGGTG	1.02
GACTGATTCG	0.985
TCGTGATTGC	1.05
TAAAAGGAGA	1.03

Sequence	switch fluorescence ratio
ATACACCGTT	1.02
CATTCACCTG	1
ATTGCTTTGT	1.03
TATTTCACG	1.05
TTATGATACT	1.03
GTCCTTAGGA	0.95
CAATAGCTAC	3.43
CGCCATTCCG	1.06
TGCATCAGGG	1.02
GGGCGACGGT	1.02
TGTTTGTTGC	0.975
CGTATTTTGA	0.969
TAACCGATTC	1.12
TGCAAAGTCA	1.04
CGGGGGAACC	1.02
CGGACACGTC	1.01
ATATCGAACC	1.07
CGAATAGGTG	1.1
GATTGTAGGA	0.997
CCGGACCCTA	1.13
GATGGTCCTG	0.987
TGGATGGTCC	0.993
TGCCGTGGCG	0.925
CACGAGGATG	1.03
CTGAAATACT	4.34

Sequence	switch fluorescence ratio
GGGACGCGTG	1.05
CAGGCCAACG	1.03
CAGGTAATCT	1.02
ACCCATGTGG	1.07
CGAGAAGCCA	0.957
GCATTTAGTT	0.96
CAGATCTTTG	1
ATAGTCCAAT	0.969
TGAAGCGCGG	0.986
GTGACAGTGT	0.989
ACCCGTTGGT	1.01
ACCCCTCGCG	1.34
AGATGCGTAC	1.28
GGTTAAGTCC	1.07
ATTAAAATCC	1.04
ACAGCTTATG	1.07
AAGTTCGGCC	0.985
GCTAGGGCCT	1.01
CACGATAGCC	1.21
AGATTACAGC	1
ACGACAAGT	1.01
TCCGGATTG	1.04
CCAGAGGATG	0.963
TTTTGGCCCG	1.03
TGATCATAGG	1.01

Sequence	switch fluorescence ratio
GCATGGCGCA	1.05
TCTATTTAGG	1.01
TTCGGCTACT	1.06
AGCCTTGCCG	1.07
TTCGCGTATC	1.06
GGTTTACTTG	1.01
TTAATGTTGC	1.08
GTGCCAGGGA	1.05
TGAGCCTGTG	0.956
ACACATGACG	0.99
TTTTATTCGC	0.995
AACAATCGAC	1.14
CAAGTTCAGT	1.01
CTAGTAGGGT	0.984
TTTACTACTT	1.06
GGAGCTAGAT	1.34
ACGAAGCGGT	1.24
ATTTATAATG	0.992
GGTGCTTGAC	1.01
CAGCGTCTGA	1.01
GCTAGACTGC	0.938
AGCGGGGTTA	1.05
GCAGTGCGCT	1.03
AGACACAGGC	0.992
CTGCCGGGAC	1.54

Sequence	switch fluorescence ratio
ACGTATCACA	1.18
TAGGTGTGAC	0.982
ATAATAAATG	0.997
CAATTTCAGT	0.971
CGTGGCCACG	0.968
TGGGGTTGCT	0.941
GAGGTGTATA	1.05
GTTCTTAAGG	0.96
GCGTCGTAAG	1
GCAAACGGTA	1.06
CTCACGAAAC	1.35
GTGACTTATA	1.04
TCGTGGGTGA	1.01
TTAAACCTTA	1.49
AGCCTTGATG	1.02
TTGTTCCGGG	1.06
ACTCTCACAA	1.69
CTTGCTCAAT	1.18
GCCAAGTATA	1
CTGTCTTACC	1.03
ATGGGTATTC	1.01
CAATGCAGTC	1.06
TTAGAGCGAT	4.03
TACGATGGAC	1.14
CGCCAATCAA	1.1

Sequence	switch fluorescence ratio
TTGCGCCCTA	1.02
TAGGGCATAG	1.03
GTTCAGTAAT	1.04
CGCTGTATTC	1.06
CCTGCCCTT	1.02
AGGCCTGATA	0.997
TTCATTATTG	0.94
GATTAATCCG	1.03
ACATGGGAG	1.04
GGGATTGACG	1.02
CGCCGCGGAG	1.33
AAGATGTGCG	1.02
TCACTGGAAT	1.05
ATGCATCGTC	1.01
TAGAGGTAGT	1.02
CCCTGCCTTG	0.967
CATGAACACG	0.976
AATTAGTAAG	1.04
CCAGAAAGGC	1.28
ACATATTCGT	1
ATTCGGCCGG	1
CGGCGATCCG	1.01
TGGTGAGTT	1
GGTTGCCTTG	0.979
ATACGGTACT	1.44
